From the supplement of paper PMC9446081
The campaign covered roughly 39,000 compounds. About 220 (0.56%) showed activity. This is one part of the list.

test system: Escherichia coli K-12 BW25113; test: relative growth (OD600 normalised to plate interquartile mean) (fraction); higher = less growth inhibition, active = 0.2 or less; conditions: 50 µM; LB; incubation time: overnight (16-24 h)
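Note: static incubation at 37 °C against the wild-type strain, values averaged over two biological replicates.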

Structure (SMILES) | relative growth
C[C@@H]1CCCCO[C@H](CN(C)S(C)(=O)=O)[C@@H](C)CN([C@@H](C)CO)C(=O)c2cc(NS(=O)(=O)c3ccc(F)cc3)ccc2O1 | inactive: 0.989
C[C@H]1[C@H]([Si](C)(C)F)[C@@H](CC(=O)N(CCO)Cc2ccccc2)O[C@]12C(=O)N(c1ccccc1)c1ccccc12 | inactive: 1
Cc1noc(C)c1S(=O)(=O)N(C)C[C@@H]1Oc2ccc(NC(=O)Cn3cnnn3)cc2CC(=O)N([C@H](C)CO)C[C@H]1C | inactive: 0.992
C[C@@H]1CN([C@@H](C)CO)C(=O)Cc2cc(NC(=O)Nc3cccc4ccccc34)ccc2O[C@@H]1CN(C)C(=O)NC1CCCCC1 | inactive: 1
CCCNC(=O)N1C[C@H](O)COC[C@H]2O[C@@H](CC(=O)NCCCN3CCOCC3)CC[C@@H]21 | inactive: 1.02
C[C@H]1CN([C@@H](C)CO)C(=O)Cc2cc(NC(=O)Nc3cccc4ccccc34)ccc2O[C@@H]1CN(C)C(=O)Nc1ccc(C(F)(F)F)cc1 | inactive: 0.854
O=C(Nc1cccc2cccnc12)[C@@H]1[C@H](c2cccc(Br)c2)CC(=O)N1C(=O)OCc1ccccc1 | inactive: 1.01
C[C@@H]1CCCCO[C@@H](CN(C)Cc2ccc(C(=O)O)cc2)[C@H](C)CN([C@@H](C)CO)C(=O)c2cc(NC(=O)NC3CCCCC3)ccc2O1 | inactive: 1.01
C[C@@H]1CN([C@@H](C)CO)C(=O)c2cc(C#CCN(C)C)cnc2O[C@@H]1CN(C)C(=O)CCN1CCCCC1 | inactive: 1.03
C[C@@H]1CN([C@@H](C)CO)C(=O)c2cc(NC(=O)CCN3CCOCC3)ccc2O[C@H]1CN(C)S(=O)(=O)c1ccc(F)cc1 | inactive: 0.93
COc1ccc(S(=O)(=O)Nc2ccc3c(c2)C(=O)N([C@H](C)CO)C[C@H](C)[C@H](CN(C)S(C)(=O)=O)O3)cc1 | inactive: 0.99
COc1ccc(S(=O)(=O)N(C)C[C@H]2Oc3c(NC(=O)C4CCOCC4)cccc3C(=O)N([C@H](C)CO)C[C@H]2C)cc1 | inactive: 0.921
COc1ccc(S(=O)(=O)N(C)C[C@@H]2Oc3ccc(NC(=O)CCCN(C)C)cc3C(=O)N([C@@H](C)CO)C[C@@H]2C)cc1 | inactive: 1.05
COc1ccc(S(=O)(=O)N(C)C[C@H]2Oc3c(NS(=O)(=O)c4cccs4)cccc3C(=O)N([C@H](C)CO)C[C@@H]2C)cc1 | inactive: 1.02
COc1ccc(S(=O)(=O)Nc2ccc3c(c2)CC(=O)N([C@@H](C)CO)C[C@H](C)[C@@H](CN(C)CC2CC2)O3)cc1 | inactive: 1.01
C[C@H](CO)N1C[C@H](C)[C@H](CN(C)S(=O)(=O)c2ccc(Cl)cc2)OCCCC[C@H](C)Oc2ccc(NC(=O)CCC(F)(F)F)cc2C1=O | inactive: 1.05
O=C(C[C@@H]1CC[C@H]2[C@@H](COC[C@H](O)CN2S(=O)(=O)c2ccccc2)O1)N1CCOCC1 | inactive: 1.04
C[C@@H]1COC(=O)[C@@H](Cc2ccc(F)cc2)CC=CC[C@@H](CC(=O)N[C@@H](CO)Cc2ccccc2)C(=O)N1 | inactive: 0.998
Cc1ccc(S(=O)(=O)Nc2ccc3c(c2)C(=O)N([C@H](C)CO)C[C@H](C)[C@@H](CN(C)Cc2ccc(C(F)(F)F)cc2)OCCCC[C@@H](C)O3)cc1 | inactive: 1.03

Structure (SMILES) | relative growth
COc1ccc([Si](C)(C)[C@H]2[C@H](CC(=O)N(CCO)Cc3ccccc3)O[C@@]3(C(=O)N(Cc4cccc(N5CCCCC5=O)c4)c4ccccc43)[C@@H]2C)cc1 | inactive: 0.992
C[C@@H]1CN([C@@H](C)CO)C(=O)c2cc(NC(=O)CCCCCC(=O)Nc3ccccc3N)ccc2O[C@@H](C)CCCCO[C@@H]1CN(C)CC1CCCCC1 | inactive: 0.946
COc1ccc(S(=O)(=O)N(C)C[C@@H]2Oc3ccc(NC(=O)C4CC4)cc3C(=O)N([C@@H](C)CO)C[C@H]2C)cc1 | inactive: 0.99
C[C@H](NC(=O)C[C@@H]1C=C[C@H](NC(=O)CN2CCOCC2)[C@@H](CO)O1)c1ccccc1 | inactive: 1.03
Cc1ccc(S(=O)(=O)Nc2ccc3c(c2)C(=O)N([C@@H](C)CO)C[C@@H](C)[C@H](CN(C)C(=O)NC2CCCCC2)OCCCC[C@H](C)O3)cc1 | inactive: 1.02
Cc1noc(C)c1NC(=O)Nc1ccc2c(c1)CC(=O)N([C@@H](C)CO)C[C@@H](C)[C@@H](CN(C)Cc1ccc(Cl)c(Cl)c1)O2 | inactive: 0.971
COCC(=O)N1C[C@]2(C1)CN([C@H](CO)c1[nH]c3cc(ccc3c12)OC)S(=O)(=O)C | inactive: 1
Cc1noc(C)c1S(=O)(=O)Nc1ccc2c(c1)C(=O)N([C@@H](C)CO)C[C@@H](C)[C@H](CN(C)S(=O)(=O)c1ccc(F)cc1)O2 | inactive: 1.04
C[C@@H]1CN([C@@H](C)CO)C(=O)c2cc(NC(=O)Nc3cccc4ccccc34)ccc2O[C@H]1CN(C)S(=O)(=O)c1ccc(Cl)cc1 | inactive: 0.99
COc1ccc(NC(=O)N[C@H]2CC[C@H](CCNC(=O)CN3CCOCC3)O[C@@H]2CO)cc1 | inactive: 1
C[C@@H]1CN([C@@H](C)CO)C(=O)Cc2cc(NC(=O)Nc3ccc(C(F)(F)F)cc3)ccc2O[C@H]1CN(C)Cc1ccc(C(F)(F)F)cc1 | inactive: 1.04
C[C@@H]1CN([C@H](C)CO)C(=O)c2cccc(NS(C)(=O)=O)c2O[C@@H]1CN(C)Cc1ccc(C(=O)Nc2ccccc2N)cc1 | inactive: 0.989
C[C@H](CO)N1C[C@H](C)[C@H](CN(C)S(=O)(=O)c2cccc(C#N)c2)OCc2cnnn2CCCC1=O | inactive: 0.963
COC[C@H]1CNN1C(=O)c1cc(C)oc1C | inactive: 1.04
N[C@H]1[C@H](CCCCC(=O)O)SC[C@@H]1N | inactive: 0.943
O=C(C[C@H]1C[C@H]2c3cc(NC(=O)NC4CCCC4)ccc3O[C@H]2[C@@H](CO)O1)NCCN1CCCCC1 | inactive: 0.997
COc1ccc(S(=O)(=O)Nc2ccc3c(c2)C(=O)N([C@H](C)CO)C[C@H](C)[C@H](CN(C)C(=O)c2ccccc2)OCCCC[C@@H](C)O3)cc1 | inactive: 0.984
C[C@@H]1CN([C@@H](C)CO)C(=O)c2cc(NC(=O)Nc3cccc4ccccc34)ccc2O[C@@H](C)CCCCO[C@@H]1CN(C)C(=O)c1ccccc1 | inactive: 1
C[C@H]1CN([C@@H](C)CO)C(=O)Cc2cc(NC(=O)Cn3cnnn3)ccc2O[C@@H]1CN(C)C(=O)Nc1cccc2ccccc12 | inactive: 0.974

Structure (SMILES) | relative growth
COc1ccc(NC(=O)N(C)C[C@H]2Oc3ccc(NS(=O)(=O)c4cn(C)cn4)cc3CC(=O)N([C@@H](C)CO)C[C@@H]2C)cc1 | inactive: 1.01
COc1ccc(S(=O)(=O)N2C[C@@H](O)COC[C@@H]3O[C@@H](CC(=O)NCCCN4CCOCC4)CC[C@H]32)cc1 | inactive: 0.996
Cc1ccc(S(=O)(=O)N(C)C[C@@H]2Oc3cc(Br)ccc3S(=O)(=O)N([C@H](C)CO)C[C@@H]2C)cc1 | inactive: 1.04
C[C@@H]1CN([C@H](C)CO)C(=O)c2cc(NC(=O)Cn3cnnn3)ccc2O[C@H]1CN(C)Cc1ccc(C(=O)Nc2ccccc2N)cc1 | inactive: 0.984
CC[C@H]1Sc2ccccc2NC1=O | inactive: 0.975
CO[C@H]1CN(C)C(=O)c2cc(NC(=O)Nc3ccccc3)ccc2OC[C@@H](C)N(C(=O)CN(C)C)C[C@@H]1C | inactive: 0.983
Cc1noc(C)c1NC(=O)N(C)C[C@@H]1Oc2ccc(NS(C)(=O)=O)cc2C(=O)N([C@H](C)CO)C[C@@H]1C | inactive: 1
C[C@@H]1CCCCO[C@H](CN(C)Cc2ccncc2)[C@@H](C)CN([C@H](C)CO)C(=O)c2cc(NC(=O)Nc3cccc4ccccc34)ccc2O1 | inactive: 0.969
C[C@H]1CN([C@@H](C)CO)C(=O)c2cccc(NS(=O)(=O)c3cn(C)cn3)c2O[C@@H]1CN(C)Cc1ccncc1 | inactive: 1.01
C[C@@H]1CCCCO[C@@H](CN(C)C(=O)c2ccncc2)[C@H](C)CN([C@H](C)CO)C(=O)c2cc(NC(=O)NC3CCCCC3)ccc2O1 | inactive: 0.99
C[C@H](CO)N1C[C@H](C)[C@H](CN(C)S(=O)(=O)c2cn(C)cn2)Oc2cc(C#Cc3cccc(F)c3)ccc2S1(=O)=O | inactive: 1.04
C[C@@H]1CN([C@H](C)CO)C(=O)c2cc(NC(=O)Cc3cn(C)c4ccccc34)ccc2O[C@H]1CN(C)Cc1ccc(C(F)(F)F)cc1 | inactive: 1.01
CC(C)CC#Cc1ccc2c(c1)O[C@@H](CN(C)C(=O)Cc1ccncc1)[C@H](C)CN([C@@H](C)CO)S2(=O)=O | inactive: 0.925
C[C@H]1CN([C@@H](C)CO)C(=O)c2cccc(NC(=O)C3CC3)c2O[C@H]1CN(C)Cc1ccc(Oc2ccccc2)cc1 | inactive: 0.998
C[C@H]1CN([C@@H](C)CO)C(=O)Cc2cc(NC(=O)c3ccncc3)ccc2O[C@@H]1CN(C)C(=O)Nc1ccc2c(c1)OCO2 | inactive: 0.98
C[C@H](CO)N1C[C@H](C)[C@@H](CN(C)S(=O)(=O)c2cn(C)cn2)OCCCC[C@H](C)Oc2ccc(NS(=O)(=O)c3ccccc3)cc2C1=O | inactive: 1
COc1ccc(CN(C)C[C@H]2OCCCC[C@H](C)Oc3ccc(NC(=O)Nc4ccc(OC)cc4)cc3C(=O)N([C@@H](C)CO)C[C@@H]2C)cc1 | inactive: 0.982
C[C@H](CO)N1C[C@H](C)[C@@H](CN(C)S(C)(=O)=O)Oc2ccc(NC(=O)C3CCCCC3)cc2CC1=O | inactive: 0.992
Cc1cccc(S(=O)(=O)N2C[C@@H](O)COC[C@@H]3O[C@@H](CC(=O)NCc4ccncn4)CC[C@H]32)c1 | inactive: 1.01
